We go through three molecules from US9212231B2, “TRAIL R2-specific multimeric scaffolds” (MEDIMMUNE, LLC, dated 2015).

Read-outs that look alike come from different tables or passages of the source.

Assay [1] has as its target T1, TRAIL R2 expressed on the cell surface (human, UniProt O14763).
The target of assay [2] is T1, TRAIL R2 expressed on the cell surface. This is another data set of the same source.
For assay [3] the target is unchanged. The assay is described as follows: cell-based or functional assay.
The target is the same in assay [4]. Put plainly: cell-based or functional assay. This is another data set of the same source.

B1: A9(1E11) (designed binder)
heavy: SQIEVKDVTDTTALITWAKPWVDPPPLWGCELAYGIKDVPGDRTTIDLQQKHTAYSIGNLKPDTEYEVSLICFDPYGAKSNPAKETFTTGGGTPTSSASTKGPSVFPLAPSSKSTSGGTAALGCLVKDYFPEPVTVSWNSGALTSGVHTFPAVLQSSGLYSLSSVVTVPSSSLGTQTYICNVNHKPSNTKVDKRV[omitted - human IgG1 Fc]
light: SQIEVKDVTDTTALITWAKPWVDPPPLWGCELAYGIKDVPGDRTTIDLQQKHTAYSIGNLKPDTEYEVSLICFDPYGAKSNPAKETFTTGGGTPTRTVAAPSVFIFPPSDEQLKSGTASVVCLLNNFYPREAKVQWKVDNALQSGNSQESVTEQDSKDSTYSLSSTLTLSKADYEKHKVYACEVTHQGLSSPVTKSFNRGEC
Turning to B1, in assay [1], the EC50, killing of H2122 cells is 1.98 nM and the Maximum Inhibition %, H2122 cells amounted to 80%. In addition, in assay [2], the fold potency in inhibiting H2122 cell viability was found to be 150 fold.

B2: A7(1E11) (Fc fusion)
chain: AMASGGGGSAIEVKDVTDTTALITWAKPWVDPPPLWGCELAYGIKDVPGDRTTIDLQQKHTAYSIGNLKPDTEYEVSLICFDPYGAKSNPAKETFTTGGGGSGGGGSGGGGSAIEVKDVTDTTALITWAKPWVDPPPLWGCELAYGIKDVPGDRTTIDLQQKHTAYSIGNLKPDTEYEVSLICFDPYGAKSNPAKETFTTGGGGSGGGGSGTGA[omitted - human IgG1 Fc]
For B2, the “EC50, killing of H2122 cells” value in assay [3] was 0.02 nM.

B3: A8(1E11) (Fc fusion)
chain: AMASGGGGSAIEVKDVTDTTALITWAKPWVDPPPLWGCELAYGIKDVPGDRTTIDLQQKHTAYSIGNLKPDTEYEVSLICFDPYGAKSNPAKETFTTGGGGSGGGGSGGGGSAIEVKDVTDTTALITWAKPWVDPPPLWGCELAYGIKDVPGDRTTIDLQQKHTAYSIGNLKPDTEYEVSLICFDPYGAKSNPAKETFTTGGGGSGGGGSGGGGSAIEVKDVTDTTALITWAKPWVDPPPLWGCELAYGIKDVPGDRTTIDLQQKHTAYSIGNLKPDTEYEVSLICFDPYGAKSNPAKETFTTGGGGSGGGGSGGGGSAIEVKDVTDTTALITWAKPWVDPPPLWGCELAYGIKDVPGDRTTIDLQQKHTAYSIGNLKPDTEYEVSLICFDPYGAKSNPAKETFTTGGGGSGGGGSGTGA[omitted - human IgG1 Fc]
For the molecule B3, the “EC50, killing of H2122 cells” value in assay [4] came out at 0.0002 nM.
